# In PubChem BioAssay AID1745845 (National Center for Advancing Translational Sciences (NCATS), 2022):
# The campaign covered roughly 360,000 compounds. About 2,600 (0.72%) were called active. Inconclusive results, whose numbers are uncertain, are shown with a selection of clear calls. The call rests on the fitted dose curve; in most records, active means well fitted inhibition curve with a large enough effect; inconclusive means small, poorly fitted or top-dose-only effect; inactive means no such curve, though single readings can be large or run the other way. Potencies beside an inconclusive call are fits to weak or partial responses and may not hold up.
# Test: Primary qHTS for Inhibitors of ATXN expression; further: nearly all actives have a fitted effect of over 55% in size
# Settings: HEK-293 ATXN2-luciferase reporter, luminescence, 24 h; activity change, negative = inhibition: at 57 µM (top of the series)
# Procedure, shortened: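 ATXN2-luciferase reporter cells (luciferase flanked by upstream and downstream ATXN2 gene portions) were treated 24 h at 37 °C with compounds at up to 57 uM. SteadyGlo luminescence gave expression; GF-AFC fluorescence gave viability.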
# On the % scale 0 is the no-effect control and ±100 the full control effect; potency means the concentration at half of the fitted maximal effect; tags describe the fitted curve by direction and shape.
SMILES,Potency,"activity change, negative = inhibition"
CCc1ccc(OCC2c3cc(OC)c(OC)cc3CCN2C(=O)COc2ccccc2)cc1 (stereo not given),"inconclusive: 28.2 µM [inhibitor, single point]",–
CC1C(c2ccccc2)N(C)C(c2ccccc2)CC1(O)c1ccccc1 (stereo not given),"inconclusive: 39.8 µM [inhibitor, single point]",–
COC(=O)c1cccc(Nc2nc(-c3cccnc3)nc3ccccc23)c1,–,inactive: -0.381%
COc1ccc(NS(=O)(=O)c2cc(NC(=O)/C=C/c3cc(OC)ccc3OC)ccc2N2CCCCC2)cc1,"inconclusive: 39.8 µM [inhibitor, partial curve, poor fit]",–
O=C(CNc1ccccc1)N/N=C/c1ccc([N+](=O)[O-])o1,"inconclusive: 14.1 µM [inhibitor, partial curve]",–
CC(=O)N1CCSc2ccc(S(=O)(=O)Nc3ccccc3C)cc21,"inconclusive: 25.1 µM [inhibitor, partial curve, poor fit]",–
C=CCN1c2ccccc2[C@]23C[C@@H](C(=O)OC)N(C(=O)c4ccc(Br)cc4)C2=NC(C(=O)OC)=C(C(=O)OC)[C@H]13,"inconclusive: 17.8 µM [inhibitor, partial curve, poor fit]",–
NC(c1ccccc1)c1csc(NC(=O)Nc2cccc(Cl)c2)n1 (stereo not given),"inconclusive: 39.8 µM [inhibitor, single point]",–
Cc1cc(NC(=O)CN2CCCCC2C)no1 (stereo not given),"inconclusive: 22.4 µM [inhibitor, partial curve, poor fit]",–
COc1ccc(CC(N)c2csc(NC(=O)c3cccc(OC(F)(F)F)c3)n2)cc1 (stereo not given),"inconclusive: 28.2 µM [inhibitor, single point]",–
CCN(CC)c1ccc(NC(=O)c2cccc(C)c2OC)c(C)c1,–,inactive: 73.5%
CCOc1ccccc1N(CC(=O)N1CCc2ccccc2C1)S(=O)(=O)c1ccccc1,–,inactive: -13.2%
CC(=O)N1c2ccc(S(=O)(=O)N3CCCC(C(=O)Nc4cccc(Cl)c4)C3)cc2CC1C (stereo not given),"inconclusive: 25.1 µM [inhibitor, single point]",–
Nc1nc(-c2ccc(NC(=O)c3ccco3)cc2)cs1,active: 15.8 µM,–
CC1Cc2ccccc2N1Cc1cccc(S(=O)(=O)N(C)C)c1 (stereo not given),"inconclusive: 25.1 µM [inhibitor, single point]",–
COc1ccc(/C=C/C(=O)Nc2ccccc2C(=O)O)cc1,"inconclusive: 37.7 µM [inhibitor, single point]",–
COc1ccc(CCNC(=O)CN(CCc2ccccc2)S(C)(=O)=O)cc1,–,inactive: -8.41% [at 11.3 µM]
CCN(CC)S(=O)(=O)c1ccc2oc(C(=O)N(C)Cc3ccccc3)c(C)c2c1,–,inactive: -16.5%
Cc1cccc(N2CCN(C(=O)CCCCn3c(=O)[nH]c4ccsc4c3=O)CC2)c1C,"inconclusive: 39.8 µM [inhibitor, single point]",–
Cc1cc(Nc2cccc(Cl)c2)nc2ccc(NC(=O)Cc3cccc(C(F)(F)F)c3)cc12,"inconclusive: 31.6 µM [inhibitor, single point]",–
Fc1ccc(C2CCNCC2COc2ccc3c(c2)OCO3)cc1 (stereo not given),"inconclusive: 14.1 µM [inhibitor, partial curve]",–
COc1ccc(C(=O)/C=C/c2ccc(OC)c(O)c2)c(F)c1,–,inactive: -20%
O=Nc1c(-c2ccccc2)[nH]n(-c2ccccc2)c1=O,"inconclusive: 15.8 µM [inhibitor, partial curve, poor fit]",–

SMILES,Potency,"activity change, negative = inhibition"
O=C1NC(Cc2ccc(O)cc2)c2nc3cc(F)ccc3c(=O)n2-c2cc3ccccc3cc21 (stereo not given),"inconclusive: 20 µM [inhibitor, partial curve, poor fit]",–
CNc1ccc(Br)cc(C(=O)/C=C/c2ccc(Cl)cc2Cl)c1=O,"inconclusive: 37.7 µM [inhibitor, single point]",–
COC(=O)C1=C(C)N(Cc2ccccc2)C(=NCCc2cccnc2)N[C@H]1c1ccccc1,"inconclusive: 35.5 µM [inhibitor, single point]",–
COc1cc(-c2coc3c(C(=O)NCc4cccc(Cl)c4)cccc23)ccc1O,"inconclusive: 39.8 µM [inhibitor, single point]",–
NS(=O)(=O)c1ccc(NC(=O)c2c(Cl)cccc2Cl)cc1,"inconclusive: 0.267 µM [inhibitor, partial curve, poor fit]",–
COc1ccc(CSc2ccc(-c3nc4ccccn4c3NCc3ccccc3)cc2OC)cc1,–,inactive: -26.7%
COc1ccc(CN2CCN(Cc3cc(=O)oc4cc(C)ccc34)CC2)c(OC)c1OC,–,inactive: -36.6%
CCc1nnc(N/N=C/c2c(C)[nH]c3ccccc23)n1N,–,inactive: -18.9%
NNc1ccc(Cl)nn1,–,inactive: 30.3%
COc1cc2c(cc1OC)/C(=C/c1ccc(Cl)cc1)C(=O)OC2,"inconclusive: 28.2 µM [inhibitor, partial curve, poor fit]",–
COc1ccc(OCc2cccc(C(=O)Nc3cc(C)on3)c2)cc1,active: 2.24 µM,–
O=[N+]([O-])c1cccc(Cl)c1NCCNS(=O)(=O)c1ccccc1,–,inactive: -16.6%
CCOC(=O)Cc1csc(NC(=O)c2ccc(C)c(S(=O)(=O)N3CCOCC3)c2)n1,–,inactive: -19.7%
CCCCC(=O)OC1CCC2C3CCc4cc(O)ccc4C3CCC12C (stereo not given),"inconclusive: 39.8 µM [inhibitor, single point]",–
Cn1c(-c2ccc3c(c2)OCO3)cnc1NCc1cccc(O)c1,–,inactive: 5.22%
COc1cc(NC(=O)Nc2nc(C(N)C3CCCCC3)cs2)cc(OC)c1OC (stereo not given),"inconclusive: 31.6 µM [inhibitor, single point]",–
N#Cc1ccc(OCC(=O)N/N=C2/CC(c3ccccc3)Oc3ccccc32)cc1 (stereo not given),–,inactive: -20.5%
CC(C)(O)C#Cc1ccc(C(=O)NC2CCCCC2)s1,–,inactive: 17.9%
CC(NC(=O)COC(=O)c1cccc(S(=O)(=O)N2CCCC2)c1)c1ccccc1 (stereo not given),–,inactive: -5.99%
O=C(CNC(=O)c1cccc(F)c1)N/N=C/c1cc(Br)ccc1OC(=O)/C=C/c1ccco1,active: 28.2 µM,–
CC(=O)N1Cc2ccccc2C(C)CC12CCCC2 (stereo not given),"inconclusive: 33.6 µM [inhibitor, partial curve, poor fit]",–
Cc1ccc(S(=O)(=O)Nc2ccc3c(c2)CCCN3C(=O)c2cccs2)cc1,"inconclusive: 39.8 µM [inhibitor, single point]",–
